# Data published in the BET-seq Pho4 binding data (Le et al. 2018).
# The list shows a part of the results. Values were computed here from the reads of four pooled replicates and scatter widely.
# Target: T1, Pho4 (S. cerevisiae) (UniProt P07270)
# T1 sequence: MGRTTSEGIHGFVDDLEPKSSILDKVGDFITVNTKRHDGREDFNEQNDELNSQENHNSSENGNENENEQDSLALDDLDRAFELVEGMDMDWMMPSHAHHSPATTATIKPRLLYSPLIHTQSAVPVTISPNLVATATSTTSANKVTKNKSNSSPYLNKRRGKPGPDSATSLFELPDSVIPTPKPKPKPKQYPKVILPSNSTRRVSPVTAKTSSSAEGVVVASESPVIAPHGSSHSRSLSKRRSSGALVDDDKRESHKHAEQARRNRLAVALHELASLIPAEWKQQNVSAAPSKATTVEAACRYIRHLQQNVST
# Experiment: relative binding free energy (BET-seq); higher = weaker binding
# Conditions: reference: library average
row,Sequence,relative binding free energy
1,TCTGGCACGTGTATGT,-0.1 kcal/mol
2,AAGGACACGTGGTGAT,-0.1 kcal/mol
3,GGATCCACGTGGTAGG,0.14 kcal/mol
4,TAGTTCACGTGGGTAA,0.14 kcal/mol
5,TGTTACACGTGAGACG,0.36 kcal/mol
6,GACTTCACGTGTGTTT,0.3 kcal/mol
7,GTGTGCACGTGGGGAA,-0.02 kcal/mol
8,TTTTTCACGTGAGACA,0.38 kcal/mol
9,TCAATCACGTGGTTTT,0.16 kcal/mol
10,AGCTACACGTGGTGTA,-0.01 kcal/mol
11,ATGGGCACGTGAGTTA,0.03 kcal/mol
12,CTTGTCACGTGGTAGG,0.04 kcal/mol
13,CAGATCACGTGGTTTG,0.1 kcal/mol
14,ATTTGCACGTGTAGCG,0.16 kcal/mol
15,GGGTGCACGTGGCTAA,-0.07 kcal/mol
16,TGTTACACGTGGGCCT,0.1 kcal/mol
17,AAGGCCACGTGGTTAG,-0.13 kcal/mol
18,TGGTCCACGTGCTGGG,-0.05 kcal/mol
19,AGGCGCACGTGGCGTG,-0.36 kcal/mol
20,GGCGTCACGTGATGGA,0.32 kcal/mol
21,TGTAGCACGTGTATGC,0 kcal/mol
22,GGTCTCACGTGTGGCG,0.17 kcal/mol
23,TGTGTCACGTGCCAGG,0.03 kcal/mol

row,Sequence,relative binding free energy
1,GAAAACACGTGTTAGG,0.22 kcal/mol
2,GTTACCACGTGTGATT,0.11 kcal/mol
3,AGTTTCACGTGTGCAT,0.24 kcal/mol
4,ATCGTCACGTGTATTA,0.22 kcal/mol
5,TGTTTCACGTGCTGAG,0.27 kcal/mol
6,ATGGACACGTGGTCAG,-0.06 kcal/mol
7,AATGTCACGTGTGAGC,0.09 kcal/mol
8,AAATTCACGTGAGGGG,0.52 kcal/mol
9,AATTACACGTGGAAGG,0.22 kcal/mol
10,GAGGGCACGTGTTCAA,0.17 kcal/mol
11,TTGTACACGTGGATGC,-0.01 kcal/mol
12,TGGGTCACGTGACATG,0.18 kcal/mol
13,TGTCTCACGTGTCTTG,0.14 kcal/mol
14,GAGGGCACGTGGTAGT,-0.09 kcal/mol
15,ACGGTCACGTGGATTG,0.14 kcal/mol
16,TATTTCACGTGGGCGC,0.27 kcal/mol
17,ATTGGCACGTGGCTGG,-0.11 kcal/mol
18,TGCAGCACGTGGTGAA,-0.14 kcal/mol
19,GGAGGCACGTGGGTTC,-0.14 kcal/mol
20,GGGGACACGTGGACTG,0.1 kcal/mol
21,TGTAACACGTGCATTG,-0.09 kcal/mol
22,TTTCGCACGTGATTCG,0.15 kcal/mol
23,AGTTGCACGTGGCTAG,-0.06 kcal/mol

row,Sequence,relative binding free energy
1,GCATTCACGTGTGCGT,0.28 kcal/mol
2,TTTGACACGTGGAAGG,0.04 kcal/mol
3,TGAGTCACGTGGCTCG,0.07 kcal/mol
4,GCTTACACGTGGGGTT,-0.05 kcal/mol
5,AGTTACACGTGATAAA,0.28 kcal/mol
6,GTAGGCACGTGTTTAA,0.06 kcal/mol
7,TACGACACGTGTTGGA,0.03 kcal/mol
8,ATAGGCACGTGGTTTT,-0.23 kcal/mol
9,AGTTTCACGTGGCATG,0.16 kcal/mol
10,TTGGGCACGTGGATAC,-0.17 kcal/mol
11,AGTAACACGTGGTGAG,-0.13 kcal/mol
12,TCTGGCACGTGCTTTT,-0.05 kcal/mol
13,TTGTCCACGTGTGATG,0.14 kcal/mol
14,GAAGTCACGTGTGTCT,0.3 kcal/mol
15,TAGGTCACGTGCATGG,0.07 kcal/mol
16,GAGTGCACGTGGGCGG,-0.08 kcal/mol
17,TTGATCACGTGTAAGA,0.13 kcal/mol
18,AGCGTCACGTGTGATG,-0.06 kcal/mol
19,TAAATCACGTGAGGAG,0.33 kcal/mol
20,AGTCGCACGTGTCGGT,0.02 kcal/mol
21,TGATACACGTGCGTGG,-0.05 kcal/mol
22,TAGGTCACGTGAATGG,0.34 kcal/mol
23,TGCCACACGTGGGTGT,-0.12 kcal/mol

row,Sequence,relative binding free energy
1,TTATACACGTGAGGAG,0.15 kcal/mol
2,ACGTACACGTGGTGTA,-0.02 kcal/mol
3,GAGAGCACGTGTCGGG,-0.17 kcal/mol
4,TACGTCACGTGTATAG,0.03 kcal/mol
5,GGTATCACGTGAGTTA,0.25 kcal/mol
6,GAGTCCACGTGGTTAG,0.21 kcal/mol
7,AGAGGCACGTGTCTTG,0.06 kcal/mol
8,GGGGTCACGTGCCTTT,0.12 kcal/mol
9,TGGTTCACGTGGTGAA,0.27 kcal/mol
10,TTAATCACGTGGATGT,0.13 kcal/mol
11,GTAGTCACGTGGCGTT,0.07 kcal/mol
12,GTTGGCACGTGTGCAG,-0.02 kcal/mol
13,CAGATCACGTGGGGCT,0.06 kcal/mol
14,GTGCGCACGTGATTGT,0.07 kcal/mol
15,GCGGGCACGTGGTAGG,-0.23 kcal/mol
16,AGGTTCACGTGTTGCT,0.13 kcal/mol
17,TGTTACACGTGGAAGG,0.25 kcal/mol
18,GAGTGCACGTGGTTTC,-0.03 kcal/mol
19,TGATACACGTGGTCGT,-0.06 kcal/mol
20,GGTGGCACGTGGTGTT,0.02 kcal/mol
21,TTGCCCACGTGTGTTG,-0.02 kcal/mol
22,AGAGTCACGTGTTTAG,0.19 kcal/mol
23,GCGTGCACGTGATAGT,0.18 kcal/mol

row,Sequence,relative binding free energy
1,AGGGGCACGTGTTTGG,-0.11 kcal/mol
2,GTGTTCACGTGAAGGA,0.36 kcal/mol
3,GATGTCACGTGTTTAT,0.12 kcal/mol
4,CTGGACACGTGGAGTG,-0.02 kcal/mol
5,TTGTGCACGTGTGCGT,-0.01 kcal/mol
6,TTATTCACGTGATATG,0.24 kcal/mol
7,GGGATCACGTGAAGGT,0.31 kcal/mol
8,TTCAGCACGTGGGGGA,-0.2 kcal/mol
9,ATAGACACGTGGGTGT,-0.06 kcal/mol
10,TATTCCACGTGTAAGG,0.2 kcal/mol
11,GTTCTCACGTGTAGGA,0.37 kcal/mol
12,CAGTGCACGTGTTGGA,0.01 kcal/mol
13,GCGTTCACGTGAGAGT,0.3 kcal/mol
14,GGGTGCACGTGACGTA,0.17 kcal/mol
15,AAGAACACGTGTTTGT,0.01 kcal/mol
16,GTAGTCACGTGGGAGT,0.1 kcal/mol
17,GTTTTCACGTGCGATA,0.3 kcal/mol
18,TTGAGCACGTGTGGGT,-0.02 kcal/mol
19,TTTTACACGTGTATTA,0.08 kcal/mol
20,TGTCGCACGTGTCGGG,-0.02 kcal/mol
21,GGGTTCACGTGATTTT,0.48 kcal/mol
22,TGGATCACGTGGCCGG,0 kcal/mol
23,CAGGTCACGTGTATTG,0.14 kcal/mol
